We go through four molecules from PMC10944491.

Sequences of proteins named here, by UniProt entry; tags and fusion partners are left off.
UniProt Q13620: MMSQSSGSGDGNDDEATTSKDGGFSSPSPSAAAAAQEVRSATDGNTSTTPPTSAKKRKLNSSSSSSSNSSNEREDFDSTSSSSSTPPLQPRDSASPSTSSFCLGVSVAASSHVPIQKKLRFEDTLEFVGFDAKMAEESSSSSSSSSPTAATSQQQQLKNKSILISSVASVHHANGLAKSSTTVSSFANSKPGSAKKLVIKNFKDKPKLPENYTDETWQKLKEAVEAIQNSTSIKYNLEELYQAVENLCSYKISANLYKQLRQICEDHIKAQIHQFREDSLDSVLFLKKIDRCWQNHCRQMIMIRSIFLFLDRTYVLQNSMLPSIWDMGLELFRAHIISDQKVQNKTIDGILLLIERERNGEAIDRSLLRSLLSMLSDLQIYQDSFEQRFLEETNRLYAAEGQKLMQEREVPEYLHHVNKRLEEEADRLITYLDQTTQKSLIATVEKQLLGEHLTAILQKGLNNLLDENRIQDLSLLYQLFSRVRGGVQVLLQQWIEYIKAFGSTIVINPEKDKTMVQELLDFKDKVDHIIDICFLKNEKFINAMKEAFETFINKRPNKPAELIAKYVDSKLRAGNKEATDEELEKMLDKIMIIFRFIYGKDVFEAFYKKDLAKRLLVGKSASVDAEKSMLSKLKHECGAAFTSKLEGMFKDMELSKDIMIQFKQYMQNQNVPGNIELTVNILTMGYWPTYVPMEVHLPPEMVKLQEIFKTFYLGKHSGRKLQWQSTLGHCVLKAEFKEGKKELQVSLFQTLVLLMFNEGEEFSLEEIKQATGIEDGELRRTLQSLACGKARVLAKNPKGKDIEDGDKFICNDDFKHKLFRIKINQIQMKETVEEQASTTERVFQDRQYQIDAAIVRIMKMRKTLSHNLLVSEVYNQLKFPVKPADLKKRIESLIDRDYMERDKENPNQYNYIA

Positions count from the first letter of the chain named. Names may count otherwise. These are yes or no findings as the source states them, for the method shown. For some of these results: Binding seen in cells or lysates may run through a third protein. Some entries that bind do so weakly or less than the wild type. For some of these results: Sequences can lack the tags named with a protein.

Test [1] deals with T1, SALL2 S763/T778/S802/S806A-Flag (mutant SALL2 4A-Flag) (human) (UniProt Q9Y467).
T1 sequence: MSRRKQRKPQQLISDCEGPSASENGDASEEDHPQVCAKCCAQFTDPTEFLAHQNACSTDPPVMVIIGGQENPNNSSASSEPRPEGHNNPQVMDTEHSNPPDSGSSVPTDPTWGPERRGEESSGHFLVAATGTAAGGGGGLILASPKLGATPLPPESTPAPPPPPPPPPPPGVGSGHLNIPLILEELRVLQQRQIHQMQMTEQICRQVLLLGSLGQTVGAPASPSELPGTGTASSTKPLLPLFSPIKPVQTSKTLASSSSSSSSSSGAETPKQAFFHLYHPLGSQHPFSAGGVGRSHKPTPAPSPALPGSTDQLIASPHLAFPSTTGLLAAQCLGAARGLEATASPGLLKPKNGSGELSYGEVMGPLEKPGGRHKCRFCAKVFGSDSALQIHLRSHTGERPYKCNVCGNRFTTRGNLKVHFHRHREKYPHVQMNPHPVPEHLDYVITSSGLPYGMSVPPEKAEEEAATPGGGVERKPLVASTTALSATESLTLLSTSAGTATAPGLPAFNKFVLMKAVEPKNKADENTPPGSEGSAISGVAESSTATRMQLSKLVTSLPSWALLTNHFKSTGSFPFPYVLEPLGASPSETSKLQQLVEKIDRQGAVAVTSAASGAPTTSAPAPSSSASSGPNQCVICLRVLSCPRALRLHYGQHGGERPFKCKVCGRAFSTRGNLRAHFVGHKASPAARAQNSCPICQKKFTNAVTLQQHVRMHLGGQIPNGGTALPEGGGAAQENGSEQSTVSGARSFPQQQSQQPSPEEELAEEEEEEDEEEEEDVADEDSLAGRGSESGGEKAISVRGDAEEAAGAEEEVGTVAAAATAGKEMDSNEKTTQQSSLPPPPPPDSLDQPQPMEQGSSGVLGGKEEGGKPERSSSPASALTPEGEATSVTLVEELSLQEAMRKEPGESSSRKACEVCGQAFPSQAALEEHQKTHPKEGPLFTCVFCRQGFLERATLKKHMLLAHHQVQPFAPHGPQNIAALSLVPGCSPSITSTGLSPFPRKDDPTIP
Nature of the test: co-IP; Flag-tagged SALL2 (WT, 4A or 4D) co-expressed with CK2α K68M-HA in HEK 293 cells; SALL2 precipitated, endogenous CUL4B detected by western blot.

In test [2] the target is T2, SALL2 S763/T778/S802/S806D-Flag (mutant SALL2 4D-Flag) (human) (UniProt Q9Y467).
T2 sequence: T1 sequence with A763D, A778D, A802D, A806D
Described as above.

For test [3], the target named is T3, SALL2 (endogenous) (human (endogenous in HEK 293T)) (UniProt Q9Y467).
T3 sequence: T1 sequence with A763S, A778T, A802S, A806S
Nature of the test: co-IP; endogenous proteins, HEK 293T lysate; precipitated with anti-SALL2 antibody (Bethyl A303-208A), western blot. For orientation: In western blotting, separated proteins are transferred to a membrane and probed.

For another test, the target named is GST-CK2α (UniProt P68400). The test can be described thus: pull-down; GST-CK2α-loaded Glutathione-Sepharose 4B resin incubated with purified hSALL2-His for 12 h in Igepal buffer (Tris 50 mM pH 8.0, NaCl 150 mM, MgCl2 5 mM, Igepal 1%, sodium deoxycholate 0.25%, glycerol 10%); four washes, western blot; both purified.
Test [4] concerns the target T1, SALL2 S763/T778/S802/S806A-Flag (mutant SALL2 4A-Flag) (human). Nature of the test: co-IP; SALL2-Flag forms co-expressed with HA-tagged CK2α (wild type or K68M) in HEK293 cells; lysate precipitated with anti-Flag or anti-HA, Protein AG Plus-agarose overnight, western blot.
The target of test [5] is T2, SALL2 S763/T778/S802/S806D-Flag (mutant SALL2 4D-Flag) (human). The test is described as above.
In test [6] the target is T4, SALL2-Flag (wild type, full length) (human) (UniProt Q9Y467).
T4 sequence: T1 sequence with A763S, A778T, A802S, A806S
The description is as above.

Take “Cullin 4B ubiquitin ligase (CUL4B), endogenous (from UniProt Q13620 1-913)”: the binding result was “no binding” in test [1] and “binds” in test [2]. In the case of “CK2α (endogenous), alpha catalytic subunit of Casein Kinase II (from UniProt P68400 1-391) (enzyme)”, the binding entry in test [3] is reported as “binds”.

B1: SALL2-His recombinant protein (full length, FL) (protein, UniProt Q9Y467-1 1-1007)
chain: T1 sequence with A763S, A778T, A802S, A806S
For B1, the binding entry in the test with GST-CK2α is on record as “binds”.

B2: HA-tagged CK2α K68M (dominant-negative mutant) (enzyme, UniProt P68400 1-391)
chain: MSGPVPSRARVYTDVNTHRPREYWDYESHVVEWGNQDDYQLVRKLGRGKYSEVFEAINITNNEKVVVMILKPVKKKKIKREIKILENLRGGPNIITLADIVKDPVSRTPALVFEHVNNTDFKQLYQTLTDYDIRFYMYEILKALDYCHSMGIMHRDVKPHNVMIDHEHRKLRLIDWGLAEFYHPGQEYNVRVASRYFKGPELLVDYQMYDYSLDMWSLGCMLASMIFRKEPFFHGHDNYDQLVRIAKVLGTEDLYDYIDKYNIELDPRFNDILGRHSRKRWERFVHSENQHLVSPEALDFLDKLLRYDHQSRLTAREAMEHPYFYTVVKDQARMGSSSMPGGSTPVSSANMMSGISSVPTPSPLGPLAGSPVIAAANPLGMPVPAAAGAQQ
As to B2, the binding entry in test [4], in test [5] and in test [6] was “binds” each time.
